Reference: patent publication US20250064844A1 (Emory University, priority 2020, published 2025)
Where two headings read alike, the source gives them in different places.

Experiments:
[1] = dog, in vivo, 140 mg/kg
[2] = ICR (CD-1), mouse, in vivo, 180 mg/kg
[3] = human, in vivo
[4] = dog, in vivo
clinical = conditions: human, in vivo, po, 1600 mg

SMILES | parent prodrug observed in plasma [1] | parent prodrug observed in plasma [2] | EIDD-2801 concentrations as share of EIDD-1931 concentrations [3] | EIDD-2801 detected in the urine, share of the dose [3] | dose-limiting toxicity [4] | Cmax (clinical; mean Cmax of EIDD-2801 (prodrug) in plasma) | Tmax (clinical; median tmax of EIDD-2801 (prodrug) in plasma)
CC(C)C(=O)OC[C@H]1O[C@@H](n2ccc(NO)nc2=O)[C@H](OC(=O)C(C)C)[C@@H]1OC(=O)C(C)C [EIDD-2800] | No EIDD-2800 (parent) was observed at any time point | No EIDD-2800 (parent) was observed at any time point |  |  |  |  | 
CC(C)C(=O)OC[C@H]1O[C@@H](n2ccc(NO)nc2=O)[C@H](O)[C@@H]1O [EIDD-2801] |  |  | approximately 0.2% | approximately 0.002% | bone marrow toxicity | ≤ 13.2 ng/mL | 15 to 45 min
